The list shows a part of the results.
T1: UNK ZnF1-3 (human, UniProt Q9C0B0 31-174)
T1 sequence: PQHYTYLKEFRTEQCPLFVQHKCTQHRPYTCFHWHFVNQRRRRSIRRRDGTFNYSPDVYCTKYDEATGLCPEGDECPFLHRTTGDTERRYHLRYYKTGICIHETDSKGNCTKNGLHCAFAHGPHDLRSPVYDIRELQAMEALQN

B1: 31410937_31421441_3780_CDS_ENSG00000113360_ENST00000513349|human|control|control (ssRNA)
RNA: GGGAGUUCUACAGUCCGACGAUCCAGCUCCUCCGCUACCUUGGCCUGAGUUCUAUUAUUCACCAAAGAGCUUCGCAACAAAGUUAAGUGUCCUUCAUGAUGAUCUGGGAAAUGAAUGAAUAAGUACUCUGUGGCUACCAGUUGCAACAGAGGAUUGAGCAUCA
B2: chr7:118218646:118218647:-_ENSMUSG00000005610_ENSMUST00000162415|mus_hu|FALSE|FALSE (ssRNA)
RNA: GGGAGUUCUACAGUCCGACGAUCUUCCUGUUUGAGUAAACUGAUCAAAGAACUUGCUUUUUCUUUAUCUUCAUCGCUUCUAUCUAGUGACAGGAUGAUUACUUUGCUUAACAUCUCAGGAAGAAAGUGUUUAGGAGCCCUCAUCAACAGAGGAUUGAGCAUCA
B3: chr12:73312838:73312839:-_ENSMUSG00000021087_ENSMUST00000021497|mus_hu|motif|central (ssRNA)
RNA: GGGAGUUCUACAGUCCGACGAUCUCAGUAUCAAGUACAUAAGUGCAAAUAUCCAGAGUCCGUAAUUGAAUCCAUUAGGAACGGCAGAGAAAGUAAUACAAAUUGUAAUAAAGUUAACAUGCUGGUACUUUUUAGUAACCAUACCAACAGAGGAUUGAGCAUCA
B4: 3977921_3978041_1991_CDS_ENSG00000167658_ENST00000309311|human|control|control (ssRNA)
RNA: GGGAGUUCUACAGUCCGACGAUCGGGCCCAAAGCACCAGAUCUUGCGGGCCUCAGCCACGUCCCACUCGUACUUCUCGGCCAGGUAGCGCGCCCGCUGCUUGAGCUCCUGACGGGCGGACACCUCGCCUUUAUCGAUGUCCUCCAACAGAGGAUUGAGCAUCA
B5: chr19:40639365:40639366:-_ENSMUSG00000025007_ENSMUST00000025979|mus_mus|FALSE|FALSE (ssRNA)
RNA: GGGAGUUCUACAGUCCGACGAUCGGCUGCCACCUGGGGUAGACAGUCAGGGCGAGACUCAAAGAUCACCAGUAAAACACCUAUUGGGACAGUCACUUGUUCUAACUCCAGGUUUUUGGCAAUCCGAGUCCGGCGCAGGACGCGCAACAGAGGAUUGAGCAUCA
B6: chr18:9859796:9859797:+_ENSG00000168461_ENST00000578921|hu_mus|motif|central (ssRNA)
RNA: GGGAGUUCUACAGUCCGACGAUCGUCCAGCUGUGCAUCUCUGAUCUCCCUCAGAAAACUAAUAAAGACUUACUUCCAAAGCCAGCGGAGCGCUAACCUCCUAUUAUAGCCUUUGCCUUUUGGUGAACUGGCCAGAAAGGAAGGCAACAGAGGAUUGAGCAUCA
B7: chr11:74493064:74493065:-_ENSMUSG00000020745_ENSMUST00000021091|mus_hu|FALSE|FALSE (ssRNA)
RNA: GGGAGUUCUACAGUCCGACGAUCCUUGUUCUUGUAAUCCCAUACGCGUAGGGUCUUGUCAUCAGCACAACUCAAAAUAAACUUCCCCCCAGAAUGGAACAGAACUCCACGUACCCAGUUAUCAUGACCCACGAGGGUCAUAAGCAACAGAGGAUUGAGCAUCA
B8: chr17:57759655:57759656:+_ENSG00000141367_ENST00000269122|hu_mus|FALSE|FALSE (ssRNA)
RNA: GGGAGUUCUACAGUCCGACGAUCUCGAGCCUUCUUGCGUGCCAUCUGCAAAUACUUCACCAAUUCUUCCCAGUUUCCGCUGGCAUUGGCAGCCUGGACAACUUCCAUGUAAGAUGAAGGAUCAUCUGCUUUGAUGUAAGAAUCCAACAGAGGAUUGAGCAUCA
B9: chr17:62495991:62495992:-_ENSG00000108654_ENST00000581693|hu_mus|FALSE|FALSE (ssRNA)
RNA: GGGAGUUCUACAGUCCGACGAUCCACCAUAAUUACUGCUGCACUGCAGUCAUUUCUGCAUUUCCCAUGUUUCUUAAAUAACUAUCUUGUCUGAUAACACACAAUAUAAAGAGCAAUUAUGAAAAACAGACAUUUACAUAUACUCAACAGAGGAUUGAGCAUCA
B10: chr17:64801638:64801639:+_ENSG00000154229_ENST00000413366|hu_mus|hu_hu_hu_mus_False|8_108 (ssRNA)
RNA: GGGAGUUCUACAGUCCGACGAUCUAUAAAUACAUAUACAUAUGUACACAUAUAUAGUAAAACCCUAGUUAAACGUGUAAAGUAGCCAUUCAUUUUUAAAAUUACAUCUACAUUAAAAAAUUAAUAUAUCUGAUACAGUGCCAGCAACAGAGGAUUGAGCAUCA
B11: chr2:181286759:181286760:+_ENSMUSG00000000826_ENSMUST00000072334|mus_mus|FALSE|FALSE (ssRNA)
RNA: GGGAGUUCUACAGUCCGACGAUCGUGUUAACUGAACAUUAGAAGGGUAGGAAAGGUCAUAAACAUUGCACAGAAUCAUCUAAAGUAAUCUUAAAAUACAGUCAAAAGGAAGACAAGGAAAGACAUCACUGGGCACAAACAGAACAACAGAGGAUUGAGCAUCA
B12: 31360173_31360293_6090_CDS_ENSMUSG00000006307_ENSMUST00000006470|mouse|control|control (ssRNA)
RNA: GGGAGUUCUACAGUCCGACGAUCAGGGCCAGACACCACGGUCACAGGGAAGUGGACAUAGUGAGUGGUAGGGCUGGCCUCCUCCUCUGAGCUGUCCCCUGGACCUCCCUGGCUGCUCCCCACUGCCCCAGCAGCCACAAUCUCCAACAGAGGAUUGAGCAUCA
B13: 49334798_49334918_355_3pUTR_ENSG00000134287_ENST00000256682|human|control|control (ssRNA)
RNA: GGGAGUUCUACAGUCCGACGAUCGCAUCCAGGCCCACCAUCAGGAUGCGCAUCUCCUUCUUCCCAAUCAGGCUCUUGAGAAGGUUUCCAAAGAUAUUGCCCAUGAUCACAGCAGCUGCUUUCUGGGGACAGUGGGGCCCAAGUCAACAGAGGAUUGAGCAUCA
B14: chr2:217001844:217001845:+_ENSG00000079246_ENST00000392132|hu_hu|hu_hu_hu_mus_False|1_18 (ssRNA)
RNA: GGGAGUUCUACAGUCCGACGAUCACCAACUUGAGGAUUAGAUCUUUUGUCAUAAGCAUAUCGGACGAUGGCGACCAUGUUUAACUCAUCCAAAGCAUGAACGAGAGAGGAAAGGGCAACUGCAGCUGCCUCAUCAUCUCUUGCCAACAGAGGAUUGAGCAUCA

biological target: T1, UNK ZnF1-3; test: nsRBNS (natural sequence RNA bind-n-seq); RBNS binding buffer (assumed for nsRBNS): 25 mM Tris pH 7.5, 150 mM KCl, 3 mM MgCl2, 0.01% Triton X-100, 500 ug/ml BSA, 20 U/ml SUPERase-In, 4 C; UNK is unkempt and MSI1 is Musashi-1; names of the RNAs are library labels; protein concentration not given here; high values mean tight binding

Binder | binding signal [enrichment R]
B1 | 1.39
B2 | 0.868
B3 | 1.54
B4 | 0.544
B5 | 1.48
B6 | 1.27
B7 | 0.977
B8 | 0.804
B9 | 1.14
B10 | 1.7
B11 | 2.41
B12 | 0.861
B13 | 1.7
B14 | 1.09
